In PMC10318468:
These are yes or no findings as the source states them, for the method shown. Binding seen in cells or lysates may run through a third protein. Some results given as binding are weak or reduced against the parent protein; the word gives no strength. Where a sequence is shown, tags or fusion partners need not be part of it.

Protein sequences, listed by entry. Tags and fused reporters are not part of them.
UniProt Q9Y3Z3: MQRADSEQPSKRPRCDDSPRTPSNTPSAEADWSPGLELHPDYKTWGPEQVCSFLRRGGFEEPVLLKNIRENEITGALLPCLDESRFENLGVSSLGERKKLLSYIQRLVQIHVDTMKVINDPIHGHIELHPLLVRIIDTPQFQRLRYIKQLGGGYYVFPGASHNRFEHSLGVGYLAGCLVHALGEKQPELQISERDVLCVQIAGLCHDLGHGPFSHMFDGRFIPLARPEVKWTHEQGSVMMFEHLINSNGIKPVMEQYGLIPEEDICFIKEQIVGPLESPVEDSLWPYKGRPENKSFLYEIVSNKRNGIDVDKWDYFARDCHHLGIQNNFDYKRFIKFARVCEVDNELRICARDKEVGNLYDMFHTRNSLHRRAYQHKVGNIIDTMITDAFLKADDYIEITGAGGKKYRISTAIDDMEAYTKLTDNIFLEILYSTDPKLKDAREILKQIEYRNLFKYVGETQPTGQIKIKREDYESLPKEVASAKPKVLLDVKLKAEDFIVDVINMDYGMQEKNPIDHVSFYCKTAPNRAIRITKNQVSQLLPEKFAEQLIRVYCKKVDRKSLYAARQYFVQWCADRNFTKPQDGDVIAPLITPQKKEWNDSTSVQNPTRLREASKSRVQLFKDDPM

Target: HA-tagged SAMHD1 wildtype (UniProt Q9Y3Z3)
Experiment: co-IP; HEK293T cotransfected for 48 h with HA-SAMHD1 (WT or HD domain M3) and FLAG-IKK (WT or truncated); HA antibody and Dynabeads protein G, IgG as negative control; washed with 50 mM Tris-HCl pH 7.4, 150 mM NaCl, 1% NP-40, 0.25% sodium deoxycholate; Western blot

Row | Binder | binding
1 | FLAG-IKKα truncated mutant M2 (aa 1-387) (domain or fragment, UniProt O15111 1-387) MERPPGLRPGAGGPWEMRERLGTGGFGNVCLYQHRELDLKIAIKSCRLELSTKNRERWCHEIQIMKKLNHANVVKACDVPEELNILIHDVPLLAMEYCSGGDLRKLLNKPENCCGLKESQILSLLSDIGSGIRYLHENKIIHRDLKPENIVLQDVGGKIIHKIIDLGYAKDVDQGSLCTSFVGTLQYLAPELFENKPYTATVDYWSFGTMVFECIAGYRPFLHHLQPFTWHEKIKKKDPKCIFACEEMSGEVRFSSHLPQPNSLCSLVVEPMENWLQLMLNWDPQQRGGPVDLTLKQPRCFVLMDHILNLKIVHILNMTSAKIISFLLPPDESLHSLQSRIERETGINTGSQELLSETGISLDPRKPASQCVLDGVRGCDSYMVYLF | binds
2 | FLAG-IKKα truncated mutant M4 (aa 311-745) (domain or fragment, UniProt O15111 311-745) KIVHILNMTSAKIISFLLPPDESLHSLQSRIERETGINTGSQELLSETGISLDPRKPASQCVLDGVRGCDSYMVYLFDKSKTVYEGPFASRSLSDCVNYIVQDSKIQLPIIQLRKVWAEAVHYVSGLKEDYSRLFQGQRAAMLSLLRYNANLTKMKNTLISASQQLKAKLEFFHKSIQLDLERYSEQMTYGISSEKMLKAWKEMEEKAIHYAEVGVIGYLEDQIMSLHAEIMELQKSPYGRRQGDLMESLEQRAIDLYKQLKHRPSDHSYSDSTEMVKIIVHTVQSQDRVLKELFGHLSKLLGCKQKIIDLLPKVEVALSNIKEADNTVMFMQGKRQKEIWHLLKIACTQSSARSLVGSSLEGAVTPQTSAWLPPTSAEHDHSLSCVVTPQDGETSAQMIEENLNCLGHLSTIIHEANEEQGNSMMNLDWSWLTE | no binding
3 | FLAG-IKKβ truncated mutant M1 (aa 1-309) (domain or fragment, UniProt O14920-1 1-309) MSWSPSLTTQTCGAWEMKERLGTGGFGNVIRWHNQETGEQIAIKQCRQELSPRNRERWCLEIQIMRRLTHPNVVAARDVPEGMQNLAPNDLPLLAMEYCQGGDLRKYLNQFENCCGLREGAILTLLSDIASALRYLHENRIIHRDLKPENIVLQQGEQRLIHKIIDLGYAKELDQGSLCTSFVGTLQYLAPELLEQQKYTVTVDYWSFGTLAFECITGFRPFLPNWQPVQWHSKVRQKSEVDIVVSEDLNGTVKFSSSLPYPNNLNSVLAERLEKWLQLMLMWHPRQRGTDPTYGPNGCFKALDDILNL | binds weakly
4 | FLAG-IKKα truncated mutant M3 (aa 1-664) (domain or fragment, UniProt O15111 1-664) MERPPGLRPGAGGPWEMRERLGTGGFGNVCLYQHRELDLKIAIKSCRLELSTKNRERWCHEIQIMKKLNHANVVKACDVPEELNILIHDVPLLAMEYCSGGDLRKLLNKPENCCGLKESQILSLLSDIGSGIRYLHENKIIHRDLKPENIVLQDVGGKIIHKIIDLGYAKDVDQGSLCTSFVGTLQYLAPELFENKPYTATVDYWSFGTMVFECIAGYRPFLHHLQPFTWHEKIKKKDPKCIFACEEMSGEVRFSSHLPQPNSLCSLVVEPMENWLQLMLNWDPQQRGGPVDLTLKQPRCFVLMDHILNLKIVHILNMTSAKIISFLLPPDESLHSLQSRIERETGINTGSQELLSETGISLDPRKPASQCVLDGVRGCDSYMVYLFDKSKTVYEGPFASRSLSDCVNYIVQDSKIQLPIIQLRKVWAEAVHYVSGLKEDYSRLFQGQRAAMLSLLRYNANLTKMKNTLISASQQLKAKLEFFHKSIQLDLERYSEQMTYGISSEKMLKAWKEMEEKAIHYAEVGVIGYLEDQIMSLHAEIMELQKSPYGRRQGDLMESLEQRAIDLYKQLKHRPSDHSYSDSTEMVKIIVHTVQSQDRVLKELFGHLSKLLGCKQKIIDLLPKVEVALSNIKEADNTVMFMQGKRQKEIWHLLKIACTQSSAR | binds
5 | FLAG-IKKβ truncated mutant M2 (aa 1-390) (domain or fragment, UniProt O14920-1 1-390) MSWSPSLTTQTCGAWEMKERLGTGGFGNVIRWHNQETGEQIAIKQCRQELSPRNRERWCLEIQIMRRLTHPNVVAARDVPEGMQNLAPNDLPLLAMEYCQGGDLRKYLNQFENCCGLREGAILTLLSDIASALRYLHENRIIHRDLKPENIVLQQGEQRLIHKIIDLGYAKELDQGSLCTSFVGTLQYLAPELLEQQKYTVTVDYWSFGTLAFECITGFRPFLPNWQPVQWHSKVRQKSEVDIVVSEDLNGTVKFSSSLPYPNNLNSVLAERLEKWLQLMLMWHPRQRGTDPTYGPNGCFKALDDILNLKLVHILNMVTGTIHTYPVTEDESLQSLKARIQQDTGIPEEDQELLQEAGLALIPDKPATQCISDGKLNEGHTLDMDLVFLF | binds

Further lines, results first:

Row | binding | Binder
6 | no binding | FLAG-IKKα truncated mutant M5 (aa 423-745) (domain or fragment, UniProt O15111 423-745) LRKVWAEAVHYVSGLKEDYSRLFQGQRAAMLSLLRYNANLTKMKNTLISASQQLKAKLEFFHKSIQLDLERYSEQMTYGISSEKMLKAWKEMEEKAIHYAEVGVIGYLEDQIMSLHAEIMELQKSPYGRRQGDLMESLEQRAIDLYKQLKHRPSDHSYSDSTEMVKIIVHTVQSQDRVLKELFGHLSKLLGCKQKIIDLLPKVEVALSNIKEADNTVMFMQGKRQKEIWHLLKIACTQSSARSLVGSSLEGAVTPQTSAWLPPTSAEHDHSLSCVVTPQDGETSAQMIEENLNCLGHLSTIIHEANEEQGNSMMNLDWSWLTE
7 | binds | FLAG-IKKβ truncated mutant M3 (aa 1-666) (domain or fragment, UniProt O14920-1 1-666) MSWSPSLTTQTCGAWEMKERLGTGGFGNVIRWHNQETGEQIAIKQCRQELSPRNRERWCLEIQIMRRLTHPNVVAARDVPEGMQNLAPNDLPLLAMEYCQGGDLRKYLNQFENCCGLREGAILTLLSDIASALRYLHENRIIHRDLKPENIVLQQGEQRLIHKIIDLGYAKELDQGSLCTSFVGTLQYLAPELLEQQKYTVTVDYWSFGTLAFECITGFRPFLPNWQPVQWHSKVRQKSEVDIVVSEDLNGTVKFSSSLPYPNNLNSVLAERLEKWLQLMLMWHPRQRGTDPTYGPNGCFKALDDILNLKLVHILNMVTGTIHTYPVTEDESLQSLKARIQQDTGIPEEDQELLQEAGLALIPDKPATQCISDGKLNEGHTLDMDLVFLFDNSKITYETQISPRPQPESVSCILQEPKRNLAFFQLRKVWGQVWHSIQTLKEDCNRLQQGQRAAMMNLLRNNSCLSKMKNSMASMSQQLKAKLDFFKTSIQIDLEKYSEQTEFGITSDKLLLAWREMEQAVELCGRENEVKLLVERMMALQTDIVDLQRSPMGRKQGGTLDDLEEQARELYRRLREKPRDQRTEGDSQEMVRLLLQAIQSFEKKVRVIYTQLSKTVVCKQKALELLPKVEEVVSLMNEDEKTVVRLQEKRQKELWNLLKIACSKVR
8 | binds | FLAG-IKKα truncated mutant M1 (aa 1-310) (domain or fragment, UniProt O15111 1-310) MERPPGLRPGAGGPWEMRERLGTGGFGNVCLYQHRELDLKIAIKSCRLELSTKNRERWCHEIQIMKKLNHANVVKACDVPEELNILIHDVPLLAMEYCSGGDLRKLLNKPENCCGLKESQILSLLSDIGSGIRYLHENKIIHRDLKPENIVLQDVGGKIIHKIIDLGYAKDVDQGSLCTSFVGTLQYLAPELFENKPYTATVDYWSFGTMVFECIAGYRPFLHHLQPFTWHEKIKKKDPKCIFACEEMSGEVRFSSHLPQPNSLCSLVVEPMENWLQLMLNWDPQQRGGPVDLTLKQPRCFVLMDHILNL
9 | binds | FLAG-IKKβ truncated mutant M4 (aa 310-756) (domain or fragment, UniProt O14920-1 310-756) KLVHILNMVTGTIHTYPVTEDESLQSLKARIQQDTGIPEEDQELLQEAGLALIPDKPATQCISDGKLNEGHTLDMDLVFLFDNSKITYETQISPRPQPESVSCILQEPKRNLAFFQLRKVWGQVWHSIQTLKEDCNRLQQGQRAAMMNLLRNNSCLSKMKNSMASMSQQLKAKLDFFKTSIQIDLEKYSEQTEFGITSDKLLLAWREMEQAVELCGRENEVKLLVERMMALQTDIVDLQRSPMGRKQGGTLDDLEEQARELYRRLREKPRDQRTEGDSQEMVRLLLQAIQSFEKKVRVIYTQLSKTVVCKQKALELLPKVEEVVSLMNEDEKTVVRLQEKRQKELWNLLKIACSKVRGPVSGSPDSMNASRLSQPGQLMSQPSTASNSLPEPAKKSEELVAEAHNLCTLLENAIQDTVREQDQSFTALDWSWLQTEEEEHSCLEQAS
